# Data: the supplement of paper PMC3724861
# The list shows a part of the results.
# Tested on: T1, Caupolican (Caup) homeodomain DNA-binding domain
# T1 sequence: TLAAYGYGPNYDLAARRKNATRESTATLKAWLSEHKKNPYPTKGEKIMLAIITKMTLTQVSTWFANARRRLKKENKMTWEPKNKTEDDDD
# Experiment: PBM E-score (8-mer, recovered from the published 9-mer minima) (E-score (dimensionless, -0.5 to 0.5)); Drosophila protein; higher = stronger relative binding preference, active = 0.31 or more
# How it was run: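 An enrichment score, with higher meaning stronger, expresses relative binding preference for each short DNA word. The protein used was Caup's homeodomain DNA-binding domain (residues 214-303), produced by in vitro transcription and translation and tested at 100 nM on custom-designed protein binding microarrays. The 8-mer values were recovered from published 9-mer scores, each equal to the lower of its two constituent 8-mer scores.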
row,Sequence,PBM E-score
1,CACCGTTC,inactive: 0.0792
2,GTTTTCAA,inactive: 0.161
3,GGAGCATA,inactive: 0.0112
4,ACATGTCG,active: 0.416
5,ATCATGGC,inactive: -0.0613
6,GGCGCTGA,inactive: -0.13
7,TCCACGGA,inactive: -0.034
8,ATATGCCC,inactive: -0.0767
9,AATCGTTA,inactive: 0.104
10,CGTGATCA,inactive: 0.13
11,AGGAACTA,inactive: 0.0102
12,ATAGGAAG,inactive: -0.027
13,ATGCCAGG,inactive: -0.124
14,CGGTCCAA,inactive: -0.123
15,ACTGAGGG,inactive: -0.149
16,CTATCATC,inactive: 0.011
17,AGATGTAA,active: 0.336
18,CCCCTGAG,inactive: -0.149
19,CATACAGG,inactive: 0.152
20,ATATCAAG,inactive: 0.172
21,ATAAAGCA,inactive: 0.0727
22,TCGATACA,inactive: 0.24
23,ATCTGCCC,inactive: -0.0524
24,AAACTTAG,inactive: -0.0358
25,CGGAAAGC,inactive: -0.125

row,Sequence,PBM E-score
1,CATAGATA,inactive: 0.132
2,TTCGCGAA,inactive: 0.0164
3,GGCGTACC,inactive: -0.146
4,AAGGTTCC,inactive: -0.0592
5,ATCGCACC,inactive: -0.0473
6,CCAAGTGA,inactive: -0.0221
7,GTTTTGAA,inactive: 0.132
8,GGCGGTAA,inactive: -0.0226
9,AATGCGGG,inactive: -0.0824
10,CAGACATC,inactive: 0.185
11,ATGGAAGC,inactive: -0.0976
12,ATTAGGAG,inactive: 0.0741
13,ACAGTGAT,inactive: 0.15
14,CCGATAAC,inactive: 0.0305
15,CCTGATAA,inactive: 0.0333
16,CCCCTAAA,inactive: -0.166
17,GGATCGCA,inactive: 0.00822
18,CATGGAGA,inactive: 0.0569
19,CCAGGAGA,inactive: -0.112
20,GGGTCCGA,inactive: -0.151
21,TAACGGTA,inactive: 0.0902
22,TACTTTGA,inactive: 0.0728
23,CATCGCTC,inactive: -0.157
24,CCTAACAA,inactive: 0.196
25,GTATTAAA,inactive: 0.161

row,Sequence,PBM E-score
1,CAGGCTGC,inactive: -0.0833
2,CCTTCAAA,inactive: -0.0826
3,ATTCCCAG,inactive: 0.0161
4,AAGTAAAG,inactive: -0.0403
5,TAGGTAGA,inactive: -0.0179
6,TTGTCAAA,active: 0.316
7,GTACTCAC,inactive: 0.0591
8,AACCTTCG,inactive: -0.0507
9,AACCGTCA,inactive: -0.0665
10,CTGGCGAC,inactive: -0.142
11,ATATGCTA,≥ 0.143
12,GCAAATAA,inactive: 0.0737
13,CGTCTCTA,inactive: -0.133
14,GGAGGAGA,inactive: -0.106
15,CAAATTGC,inactive: 0.052
16,ACGCTGCT,≥ 0.0172
17,GAACTAGA,inactive: 0.0162
18,CCTCCCAA,inactive: -0.122
19,CTTGAATA,inactive: 0.0667
20,GACCAGTC,inactive: -0.0802
21,ATGGTGAG,inactive: -0.102
22,AGGACAGA,inactive: 0.121
23,AGCAATGG,inactive: -0.105
24,GCTTCTAC,inactive: -0.0563
25,CTCCGATA,inactive: -0.0748

row,Sequence,PBM E-score
1,ATTTTATA,inactive: 0.0952
2,AGTTGTAA,inactive: 0.279
3,ACTAGCAC,inactive: 0.00511
4,CCGGTGAC,inactive: -0.141
5,ACCCACGG,inactive: -0.149
6,AGGTTGTA,active: ≥ 0.333
7,CCGCCTCG,inactive: -0.168
8,ACGTGGCA,inactive: -0.0482
9,AAATGCGA,inactive: 0.0277
10,GGCGACGA,inactive: -0.123
11,TTCATAAA,inactive: 0.00779
12,ACAGGAAC,inactive: 0.201
13,CGGGCTTC,inactive: -0.289
14,AGTGTCGA,inactive: 0.0933
15,GCATTGTA,inactive: 0.175
16,GACTTATA,inactive: 0.0598
17,ATCTCGGA,inactive: -0.0126
18,ACACTACG,inactive: 0.0988
19,CAATTGTC,inactive: 0.146
20,CGTTCGAG,inactive: 0.0211
21,ACCACGGC,inactive: -0.0751
22,AGGAGTCA,≥ 0.0172
23,CGACGACA,inactive: 0.154
24,AATGTCGA,inactive: 0.212
25,GGAAGAAC,inactive: -0.0269

row,Sequence,PBM E-score
1,CTACTACA,inactive: 0.305
2,GAATTATA,inactive: 0.109
3,CGATTGAG,inactive: -0.0857
4,ACTATGAG,inactive: -0.0216
5,CAACAGTG,inactive: 0.0433
6,ACACCCCA,inactive: 0.0326
7,ATCCTCCA,inactive: -0.0861
8,CTATAGGA,inactive: -0.00704
9,TCTGTTCA,inactive: 0.0822
10,GCTGTGAC,inactive: -0.00278
11,ACGACTAC,inactive: 0.106
12,TCTATTAA,inactive: 0.0966
13,AGTCCAAG,inactive: -0.0262
14,GGAAAGAC,inactive: 0.00246
15,GAAATTTA,inactive: 0.11
16,ATAAAAGG,inactive: 0.00438
17,GCTGGTGA,inactive: -0.029
18,CCTAAGCG,inactive: -0.109
19,AGGACAAC,inactive: 0.256
20,GCGACCTA,inactive: -0.0753
21,GCAATACC,inactive: 0.0155
22,GGCAAAAC,inactive: -0.0866
23,CACGAAAC,inactive: 0.148
24,CCGTGCCA,inactive: -0.183
25,TAATGGGA,inactive: 0.0253

row,Sequence,PBM E-score
1,ATATAAGC,inactive: 0.0632
2,ACATGCTC,active: 0.334
3,CCGACGCG,inactive: -0.167
4,TCATCCGA,inactive: 0.0623
5,ACGATATA,inactive: 0.128
6,CACAGAAG,inactive: -0.0549
7,CCTCCAAC,inactive: -0.102
8,ATTATACA,inactive: 0.254
9,CCGAACCG,inactive: -0.138
10,AGCGACAT,active: 0.325
11,AAAACGAT,inactive: 0.0884
12,CAAGGAGA,inactive: -0.0609
13,CTTAAGTC,inactive: -0.0706
14,GAGGGACC,inactive: -0.261
15,CAAATCGC,inactive: -0.0651
16,CAACAGCG,inactive: -0.02
17,CGGAGGAG,inactive: -0.115
18,AACGCCCT,inactive: -0.11
19,ACGCTCGG,inactive: -0.162
20,GGGGCCAC,inactive: -0.333
21,ATTCGAAA,inactive: 0.0724
22,AGTTGGTC,inactive: -0.0686
23,GGATGCAC,inactive: -0.106
24,GCCGGCAC,inactive: -0.193
25,AACTACGT,inactive: 0.151

row,Sequence,PBM E-score
1,GTTAGCCA,inactive: -0.0805
2,ACATATAA,active: 0.35
3,ATGACAGA,inactive: 0.22
4,ATTACAGG,inactive: 0.244
5,AAGGGAAC,inactive: -0.0296
6,ACGGCCGT,inactive: -0.12
7,GGACCGAA,≥ -0.0312
8,ATCTAAGA,inactive: -0.00199
9,ACGTAACA,inactive: 0.263
10,CGCAATAA,inactive: -0.00715
11,CATAACGA,inactive: 0.049
12,TAGTGCAA,inactive: 0.0661
13,CTTGCGGA,inactive: -0.0913
14,ATGTGTGC,inactive: 0.0887
15,ATATGGAA,inactive: 0.0946
16,CGTCAAAA,inactive: 0.0589
17,AGCGCTTG,inactive: -0.0194
18,GTGGTAAC,inactive: 0.159
19,ACCGGACG,inactive: -0.193
20,AAGAATGC,inactive: 0.0231
21,CGTATTGA,inactive: 0.141
22,ACCCTCCG,inactive: -0.163
23,CTGGTAGC,inactive: 0.0527
24,CATAGTCG,inactive: 0.1
25,CAAGGACA,inactive: 0.178

row,Sequence,PBM E-score
1,AACAACAG,inactive: 0.243
2,AATCGACG,inactive: 0.0185
3,ACTATAAA,inactive: 0.142
4,GGGCACTA,inactive: -0.0959
5,ATATCTTG,inactive: 0.152
6,GAATATAC,inactive: 0.0945
7,CGATTGGA,inactive: -0.00693
8,GTCGTCAA,inactive: 0.125
9,AGTTCAGC,inactive: -0.0564
10,ATGAAGTA,≥ 0.0742
11,TAAAAATA,inactive: 0.114
12,CCTCACAA,inactive: -0.0288
13,AATCTCGT,inactive: 0.121
14,CTCAAAGA,inactive: -0.128
15,ATATGCAT,inactive: 0.0964
16,GTATAGTA,inactive: 0.161
17,AGCACATG,inactive: 0.164
18,CAGGTCCC,inactive: -0.178
19,AGAGTGTC,inactive: 0.0704
20,ACAGAAAG,inactive: 0.0934
21,GAAATAAC,inactive: 0.1
22,CACGAGTG,inactive: 0.00087
23,AACAGTGC,inactive: 0.0664
24,GAGACAAA,inactive: 0.0227
25,CTTAATAA,inactive: 0.0195

row,Sequence,PBM E-score
1,ACGGCTAA,inactive: 1e-05
2,GCAGTCGA,inactive: -0.135
3,CGCGCCCA,inactive: -0.12
4,TATCAACA,inactive: 0.248
5,GGCGGTGA,inactive: -0.117
6,ACCTTTAC,inactive: 0.069
7,GGATGACC,inactive: -0.12
8,CCGTGCAA,inactive: -0.00032
9,AGAGTAAG,inactive: -0.0115
10,AGTGTCAC,inactive: 0.13
11,AACACTAT,inactive: 0.174
12,GACCAGCC,inactive: -0.111
13,CTGTCGTC,inactive: 0.0801
14,AGGGGTCG,inactive: -0.156
15,CTGCTGAA,inactive: 0.0208
16,ATGAAACA,inactive: 0.197
17,TACAACTA,inactive: 0.239
18,AGCAGCAC,inactive: -0.0836
19,AGAAACCT,inactive: -0.00153
20,ACACCGAA,inactive: 0.145
21,GTCCGTCA,inactive: 0.0822
22,AGCGTCTA,inactive: -0.0661
23,GACCGAGC,inactive: -0.152
